# According to PubChem BioAssay AID540267 (National Center for Advancing Translational Sciences (NCATS), 2011):
# Out of some 340,000 compounds screened, about 530 (0.16%) were called active. Inconclusive means that the source gave no clear call. Such entries were picked first, then a sample of the others. No stated cut-off is given here; in the data, active means activity change below about -80%; inconclusive means between about -30% and that limit; inactive means weaker than that.
# Test: Small Molecules that selectively kill Giardia lamblia: qHTS;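 further: parasites exposed to compound for two days anaerobically before the ATP read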
# Settings: Giardia lamblia trophozoite viability; at 7.66 µM; hits give low values
# Summary of the method: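 Trophozoites 100 cells/well + cpd; 48 hrs, 37 deg C, anaerobic. ATPLite 1-Step added, 15-30 min RT, luminescence read (ATP-based viability).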
# On the % scale 0 is the no-effect control and ±100 the full control effect.
row,Compound,activity change
1,Cn1cc(CCC(=O)NC2CC(C)(C)Cc3c2cnn3-c2ccc(F)cc2)cn1 (centres undefined),inactive: 5.68%
2,COc1ccc(C(=O)NCCc2ccc(Cl)cc2)cc1S(=O)(=O)N1CCCCC1C (centres undefined),inconclusive: -30.4% [inhibitor]
3,CCC(C)C(=O)Nc1nnc(SCC(=O)Nc2ccc(F)cc2)s1 (centres undefined),inconclusive: -31.5% [inhibitor]
4,c1ccc(-c2cc3c(N4CCN(c5ncccn5)CC4)ncnc3s2)cc1,inactive: 9.18%
5,Cc1ccc(N2C(=O)c3cccc4c([N+](=O)[O-])ccc(c34)C2=O)c2cccnc12,inconclusive: -40.9% [inhibitor]
6,O=C(Nc1ccc(F)c(F)c1)C1CCN(S(=O)(=O)c2cccs2)CC1,inactive: -8.97%
7,CCCc1c(C(=O)N/N=C/c2cccnc2)nnn1-c1nonc1N,inconclusive: -32.7% [inhibitor]
8,Cc1ccc(-c2nc3ncccn3c2NC(=O)C2CC2)cc1,inconclusive: -37.1% [inhibitor]
9,CCOC(=O)C1CCCN(C2=NC(=O)/C(=C/c3ccc(OC)cc3)S2)C1 (centres undefined),inconclusive: -38.5% [inhibitor]
10,CC(C)(C)C(=O)c1cn(CC(=O)NCc2ccc3c(c2)OCO3)c2ccccc12,inactive: 8.36%
11,CCCCCCCN1N=C(C)C(C(=O)c2ccccc2)C1=O (centres undefined),inconclusive: -37.4% [inhibitor]
12,O=[N+]([O-])/C(Cl)=C(/NCCO)C(Cl)=C(Cl)Cl,active: -100%
13,N#CC(Cc1cccc(CC(C#N)(c2ccccc2)c2ccccc2)c1)(c1ccccc1)c1ccccc1,inconclusive: -37.7% [inhibitor]
14,Cc1ccc(C)c(OCc2nc3ccc(S(=O)(=O)Nc4c(C)n(C)n(-c5ccccc5)c4=O)cc3[nH]2)c1,inactive: 9.19%
15,CCOC(=O)N/N=C/c1ccc(N2CCOCC2)s1,inconclusive: -31.7% [inhibitor]
16,COC(=O)c1ccc(-c2ccc(OC)c(C3C4C=CCC(C)C4C(=O)N3Cc3ccccc3)c2)cc1 (centres undefined),inactive: -17.5%
17,O=C(NC(=S)Nc1nc2ccccc2s1)c1cccs1,inconclusive: -43.5% [inhibitor]
18,CC(=O)N1c2ccc(S(=O)(=O)NCCc3ccccc3)cc2CC1C (centres undefined),inconclusive: -44.8% [inhibitor]
19,Cc1cc(C)cc(N2C(=O)CC(c3ccccc3)CC2=O)c1,inconclusive: -42.4% [inhibitor]
20,COc1cccc(/C=C/C(=O)c2cccc([N+](=O)[O-])c2)c1OC,inconclusive: -38.1% [inhibitor]
21,COc1ccc(CCC2CCNCC2)cc1,inconclusive: -36.8% [inhibitor]
22,COc1ccc(-n2c(C)cc(C(=O)CSc3ccc(NC(C)=O)cc3)c2C)cc1,inconclusive: -35.7% [inhibitor]
23,Cc1ccc(SCC2=NN(c3nc(C)cc(C)n3)C(=O)C2)cc1,inconclusive: -39.6% [inhibitor]
24,C=C(C)CSc1cc(C)c(C#N)c2nc3ccccc3n12,inactive: -14.6%
25,COc1cccc(N2CCN(c3ccc(S(=O)(=O)N4CCN(C)CC4)cc3[N+](=O)[O-])CC2)c1,inactive: 4.97%

row,Compound,activity change
1,Cc1ccc([C@@H]2CC=C(C(=O)O)[C@H](c3ccc(Cl)cc3)N2S(=O)(=O)c2ccc(C)cc2)cc1,inconclusive: -54.6% [inhibitor]
2,CCNC(=S)N1CCN(CCN=CC2=C(O)CC(C)(C)CC2=O)CC1,inconclusive: -34.6% [inhibitor]
3,CN(C)c1oc(-c2ccccc2Cl)nc1C#N,inactive: 5.55%
4,COc1ccc(COC(=O)Oc2ccc(CNC(C)=O)cc2OC)c([N+](=O)[O-])c1,inconclusive: -34.4% [inhibitor]
5,COc1cc(/C=N/N(C)C)cc(Br)c1O,inconclusive: -31.4% [inhibitor]
6,CC(C)c1ccc(NC(=O)Cn2nnc(C(=O)NCc3ccco3)c2N)cc1,inconclusive: -32.4% [inhibitor]
7,Cc1nnc(NC(=O)c2sc3ccccc3c2Cl)s1,active: -84%
8,O=C(Nc1nnc(SCC(=O)N2CCCc3ccccc32)s1)c1ccc2ccccc2c1,inconclusive: -54.8% [inhibitor]
9,O=[N+]([O-])c1ccc(-n2cnc3ccccc32)c([N+](=O)[O-])c1,inconclusive: -30.7% [inhibitor]
10,Nc1cccc(C(=O)Nc2ccco2)c1,inconclusive: -32.5% [inhibitor]
11,CCOc1ccc(NC(=O)Nc2cccnc2)cc1,inconclusive: -36.3% [inhibitor]
12,CCOC(=O)C1(CCOc2ccccc2)CCN(CC2CC2)CC1,inactive: 10.6%
13,COc1ccc(C(C#N)N2N=C(C)CC2c2ccccc2)cc1 (centres undefined),inconclusive: -30.9% [inhibitor]
14,CC[C@@]1(C(=O)OC)N[C@H](CN(C)C(=O)c2ccccc2)[C@@H]2C(=O)N(C)C(=O)[C@@H]21,inconclusive: -30.7% [inhibitor]
15,O=[N+]([O-])c1c(NCCCO)cc(SCc2ccco2)c2nonc12,inactive: 6.92%
16,COc1ccc(C(=O)c2c3ccc(C(F)(F)F)cc3[n+]([O-])n2CCCN)cc1,inconclusive: -67.3% [inhibitor]
17,O=C(Nc1ccc(OCC(=O)N2CCOCC2)cc1)c1ccccc1Cl,inconclusive: -64.3% [inhibitor]
18,Cc1cc(C)nc(N/N=C/c2ccc(Cl)cc2)n1,inconclusive: -46.3% [inhibitor]
19,CNC(=O)c1ccc(S(=O)(=O)c2ccc(Cl)cc2)c(NC(C)=O)c1,inactive: -14.6%
20,Cc1ccc(-c2nnc(SCC(=O)N3CCOCC3)nc2-c2ccc(C)cc2)cc1,inconclusive: -30.7% [inhibitor]
21,CCCCN(CCCC)CCC(O)c1cc2c(Cl)cc(Cl)cc2c2cc(C(F)(F)F)ccc12 (centres undefined),inconclusive: -34.6% [inhibitor]
22,CC(C)(C)n1nnnc1C(c1cccc(C(F)(F)F)c1)N1CCOCC1 (centres undefined),inactive: -8.21%
23,Cc1cc(C(=O)N/N=C/c2ccc3c(c2)OCO3)c(C)n1-c1ccc(F)cc1,inactive: -18.3%
24,Cc1cccc(-c2noc(CCC(=O)NCCc3ccccc3)n2)c1,inconclusive: -35.9% [inhibitor]
